# Assay results taken from PMC4336329 (PLoS ONE, 2015).
# About 2,200 (0.71%) of roughly 310,000 compounds showed an effect of 50% or more. The effect is printed as a negative number. The list shows a part of the results.
# Molecular target: human ether-à-go-go-related gene (hERG) potassium channel (human, UniProt Q12809)
# Test: primary screen, population patch clamp on CHO cells stably expressing hERG
# Chain of human ether-à-go-go-related gene (hERG) potassium channel (Q12809 whole entry, looked up): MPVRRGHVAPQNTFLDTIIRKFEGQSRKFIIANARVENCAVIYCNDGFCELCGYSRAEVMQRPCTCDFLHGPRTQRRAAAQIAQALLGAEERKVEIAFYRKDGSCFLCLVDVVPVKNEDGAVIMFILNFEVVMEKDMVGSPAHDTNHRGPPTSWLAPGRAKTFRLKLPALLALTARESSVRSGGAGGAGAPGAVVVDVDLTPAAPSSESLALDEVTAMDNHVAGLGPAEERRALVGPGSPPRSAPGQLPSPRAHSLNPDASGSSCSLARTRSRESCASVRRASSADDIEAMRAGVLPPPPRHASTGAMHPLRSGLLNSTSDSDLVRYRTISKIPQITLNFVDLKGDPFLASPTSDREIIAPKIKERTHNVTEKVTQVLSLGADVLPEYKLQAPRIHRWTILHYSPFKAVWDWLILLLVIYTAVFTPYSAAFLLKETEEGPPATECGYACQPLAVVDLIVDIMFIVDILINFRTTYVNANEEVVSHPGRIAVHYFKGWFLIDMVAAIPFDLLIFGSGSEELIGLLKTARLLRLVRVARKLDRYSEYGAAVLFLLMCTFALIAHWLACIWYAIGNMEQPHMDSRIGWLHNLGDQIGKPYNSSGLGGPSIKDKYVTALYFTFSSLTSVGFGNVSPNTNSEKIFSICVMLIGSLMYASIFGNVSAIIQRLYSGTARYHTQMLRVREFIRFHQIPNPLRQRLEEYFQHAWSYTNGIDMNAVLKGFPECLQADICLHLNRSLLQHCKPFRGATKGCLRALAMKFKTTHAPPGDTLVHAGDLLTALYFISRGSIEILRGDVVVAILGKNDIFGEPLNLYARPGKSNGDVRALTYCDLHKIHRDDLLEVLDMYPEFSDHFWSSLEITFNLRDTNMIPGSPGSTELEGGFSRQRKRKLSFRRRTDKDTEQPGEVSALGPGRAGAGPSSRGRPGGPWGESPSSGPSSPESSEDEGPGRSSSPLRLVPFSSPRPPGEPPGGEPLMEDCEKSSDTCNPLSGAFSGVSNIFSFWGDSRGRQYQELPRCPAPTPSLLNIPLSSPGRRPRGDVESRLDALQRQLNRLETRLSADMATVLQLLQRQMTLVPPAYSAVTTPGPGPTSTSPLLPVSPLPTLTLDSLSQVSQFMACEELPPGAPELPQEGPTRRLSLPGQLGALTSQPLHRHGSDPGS
row,Structure (SMILES),"hERG current change (%, negative = inhibition) at 1uM"
1,CC(=O)Nc1ccc(NC(=O)CN(c2ccc(F)cc2)S(=O)(=O)c2ccc3c(c2)OCCO3)cc1,7.23%
2,COc1cccc(OC)c1NC(=O)CN(C)S(=O)(=O)c1ccc2c(c1)OCCO2,5.52%
3,CCOC(=O)C1=C(C)Nc2ccccc2N=C1NC(=O)Cc1ccc(OC)cc1,29.2%
4,N#Cc1ccc(Oc2ccc(/C=N/O)cn2)cc1,-9.63%
5,NC(=O)c1nsc(C(=O)N(c2ccccc2F)C(C(=O)NCc2ccccc2)c2ccc(O)cc2)c1N (stereo not shown),8.51%
6,O=C(c1ccco1)N1CCN(Cc2cc(=O)c(OCc3cccc(F)c3)co2)CC1,-29.3%
7,COc1ccccc1CC(=O)N1CCCc2ccccc21,15.7%
8,CC(C)C(=O)c1cn(CC(=O)NCC2CCCO2)c2ccccc12 (stereo not shown),13%
9,CCN(CC)CCNC1=CC(=O)OC12CCCCC2,9.31%
10,Cc1cc(C)cc(N(C(=O)CNC(=O)c2ccco2)C(C(=O)NC2CCCC2)c2ccncc2)c1 (stereo not shown),-4.9%
11,O=C1Nc2ccccc2/C1=C/c1ccccc1Cl,14%
12,Cc1ccc(NC(=O)CCC(=O)O)cc1F,8.6%
13,COc1cccc(CN2CCSCC2)c1OC,8.83%
14,CC(C)OCCCNC(=O)C1CCC(CNS(=O)(=O)c2ccccc2)CC1 (stereo not shown),5.45%
15,O=C(COC(=O)Cc1ccccc1)NCCNC(=O)COC(=O)Cc1ccccc1,2.05%
16,CCOC(=O)[C@@H]1[C@H]2COc3ccc(Br)cc3[C@H]2N2C(=O)N(c3ccc(C)cc3)C(=O)[C@]12C,4.94%
17,N#CNC(=Nc1cccc(F)c1)SCc1cccc(F)c1,6.12%
18,Cc1ccc(C(=O)OCC(=O)NNC(=O)COc2ccc(Cl)cc2)c(O)c1,11.4%
19,COc1cccc(-c2cccc(NC(=O)C3CCN(C4CCC4)CC3)c2)c1,-17.5%
20,CCOC(=O)Cc1nnc(NC(=O)CSc2nnc3c4ccccc4n(C)c3n2)s1,-2.99%
21,Cc1ccc(NC(=O)Nc2ccnc(-c3cccnc3)n2)cc1,-0.274%
22,COc1cc2c(cc1OC)C(c1ccc(C(F)(F)F)cc1)CC(=O)N2 (stereo not shown),5.68%

row,Structure (SMILES),"hERG current change (%, negative = inhibition) at 1uM"
1,CCOC(=O)c1c(-c2ccc(C)cc2)cn2ccccc12,11.1%
2,COc1ccccc1NC(=O)Nc1ccc(N2CCOCC2)cc1,10.4%
3,CC[n+]1ccccc1/C=C1\Sc2ccc(C)cc2N1C.[I-],-7.34%
4,O=C(Nc1nc2ccc(S(=O)(=O)N3CCCCC3)cc2s1)C1CCCO1 (stereo not shown),7.35%
5,COc1ccc(CCNC(=O)c2nn(C)c3c2CS(=O)(=O)c2ccccc2-3)cc1OC,10.5%
6,CCCCNc1c([N+](=O)[O-])ncn1C,-4.04%
7,COc1cc2cc(CN(CCCN3CCOCC3)C(=O)Nc3ccccc3F)c(=O)[nH]c2cc1OC,22.5%
8,Cc1noc(C)c1S(=O)(=O)N1CCN(S(=O)(=O)c2ccccc2C#N)CC1,12.8%
9,CCN(CC(=O)Nc1ccc2c(c1)OCCO2)C(=O)COc1cc(C)ccc1Cl,9.28%
10,Cc1cccc(OCCCSc2nc3ccc(C)cc3[nH]2)c1,16.2%
11,Clc1nc2c(-c3ccccc3)nnn2c2ccccc12,8.57%
12,O=C(CCCc1ccccc1)NCCc1cnc[nH]1,10.1%
13,CC(=O)CC(c1ccccc1)S(=O)(=O)c1ccc(C)cc1 (stereo not shown),5.76%
14,O=C(c1ccccc1Cl)N1CCN(S(=O)(=O)N2CCCCC2)CC1,15.1%
15,O=S(=O)(NCCOCCNS(=O)(=O)c1ccccc1)c1ccccc1,9.64%
16,Cc1ccc(C(O)CN2C3=NCCCN3c3ccccc32)cc1.Cl (stereo not shown),-51.4%
17,CC(CC(=O)Nc1cc(S(=O)(=O)N2CCOCC2)ccc1OCC(F)(F)F)c1ccccc1 (stereo not shown),-11.8%
18,CN(C)C(CNC(=S)Nc1ccccc1)c1cccnc1 (stereo not shown),12.3%
19,Cc1ccc(C(=O)N/N=C\c2ccc[nH]2)cc1[N+](=O)[O-],8.21%
20,COc1ccc(C(C#N)C2(C)OCCO2)cc1OC (stereo not shown),6.46%
21,Cc1onc(-c2ccccc2)c1C(=O)N1CCCC(C(F)(F)F)C1 (stereo not shown),-6.53%
22,c1ccc(CC2CCN(c3nc4ccccc4n4nnnc34)CC2)cc1,17.2%

row,Structure (SMILES),"hERG current change (%, negative = inhibition) at 1uM"
1,O=C(C1CCC(=O)N1Cc1cccnc1)N1CCN(c2ccc(F)cc2)CC1 (stereo not shown),10.5%
2,CC(/C=N/NC(=O)Cc1cc(=O)[nH][nH]1)=C\c1ccccc1,8.24%
3,CN(CC(=O)NCCC1=CCCCC1)S(=O)(=O)c1ccc2c(c1)c(=O)n(C)c(=O)n2C,-20.6%
4,Cc1c(S(=O)(=O)N2CCOCC2)c(=O)n(C)c(=O)n1C,0.31%
5,Cn1nc([N+](=O)[O-])nc1Oc1ccc2ccccc2c1,0.721%
6,Cc1ccccc1NC(=S)NC(=O)Cc1ccc(Cl)cc1,11.9%
7,O=C(COC(=O)CCN1C(=O)c2cccc([N+](=O)[O-])c2C1=O)NC1CCS(=O)(=O)C1 (stereo not shown),2.61%
8,COc1ccc(NC(=O)c2ccc(COCC(F)(F)F)cc2)cc1OC,10.5%
9,CCOC(=O)C(NC(C)=O)(OCc1ccc(F)cc1)C(F)(F)F (stereo not shown),10.4%
10,CCCCn1c(SC(C)C(N)=O)nc2cc(C(=O)OC)ccc2c1=O (stereo not shown),3.35%
11,COc1ccc(OC)c(NC(=O)CCN2CCN(c3ccccc3OC)CC2)c1,9.26%
12,CCOc1ccccc1/C=C/c1cc(C(=O)O)c2ccccc2n1,13.4%
13,Cc1noc(C)c1CSCC(=O)N(C)CC(=O)Nc1ccccc1Br,17.4%
14,Cc1cc(=O)[nH]c(SCC(=O)Nc2cccc(S(=O)(=O)N3CCOCC3)c2)n1,9.94%
15,CCc1ccc(S(=O)(=O)Nc2cc(SCC(=O)O)c(O)c3ccccc23)cc1,15%
16,Cc1cccc(NC(=O)NNC(=O)c2ccc(C)c([N+](=O)[O-])c2)c1,3.38%
17,CCOC(=O)C1CCN(CC(=O)Nc2c(C(=O)OC)n(C)c3cccc(C)c23)CC1,-3.15%
18,COc1ccc(C(=O)Nn2c(SCC(=O)NCc3ccccc3)nc3ccccc3c2=O)cc1,-5.21%
19,CSc1nc2ccc(NC(=O)c3ccc(=O)[nH]c3)cc2s1,10.8%
20,O=C(CCC(=O)c1ccccc1)NC1CCCN(Cc2ccccc2F)C1 (stereo not shown),9.81%
21,N#Cc1c(SCC(=O)Nc2cccc(C(F)(F)F)c2)sc2c(O)cc(=O)[nH]c12,8.39%
22,Cc1cc2nnc(SC3CCOC3=O)n2c2ccccc12 (stereo not shown),-4.23%

row,Structure (SMILES),"hERG current change (%, negative = inhibition) at 1uM"
1,O=C(Nc1ccccc1)C(=O)c1cn(CC(=O)N2CCCCC2)c2ccccc12,-20.6%
2,CCN(C(=O)Cc1c(C(=O)O)[nH]c2ccccc12)c1ccc(OC)cc1,17.9%
3,O=C(Nc1ccc(O)c(-c2nc3ccccc3s2)c1)c1cc(=O)c2ccccc2o1,8.27%
4,Cc1cc(C)nc(NS(=O)(=O)c2ccc(NC(=O)C(C)Oc3ccccc3F)cc2)n1 (stereo not shown),12.2%
5,CCCCCn1c(=O)c(C(=O)NCc2ccc(Cl)cc2)c(O)c2ccccc21,14.4%
6,O=C(COc1ccccc1)N=C1SC2CS(=O)(=O)CC2N1c1ccccc1F (stereo not shown),5.41%
7,COc1ccc(-n2c(=S)[nH]c3cc(C(=O)Nc4cc(C(N)=O)ccc4OC)ccc3c2=O)c(OC)c1,16.6%
8,CC(=O)Oc1ccc2ccccc2c1C(NC(=O)Cc1ccccc1)c1ccccc1 (stereo not shown),-0.824%
9,N=c1oc2cc(O)ccc2cc1C(=O)Nc1ccccn1,13.1%
10,CC(=O)c1ccc(NC(=S)N2CCCC(CO)C2)cc1 (stereo not shown),12%
11,Cc1nc2ccc(NC(=S)NC3CCCCC3)cc2nc1C,8.08%
12,O=C(Cn1cc(C(F)(F)F)ccc1=O)NCc1ccc(F)cc1,12.5%
13,O=[N+]([O-])c1ccc2oc(C3CCCCC3)nc2c1,14.4%
14,Cc1cc(C)cc(N(C(=O)c2csnn2)C(C(=O)NC2CCCC2)c2cccnc2)c1 (stereo not shown),13.7%
15,CSc1ccccc1NC(=O)CSc1nnc(Cc2ccccc2)o1,8.85%
16,CCC(=O)c1c[nH]c(C(=O)NCc2cccnc2)c1,8.2%
17,Cn1cc([N+](=O)[O-])c(C(=O)NCc2cc3ccccc3[nH]2)n1,12.5%
18,CC(C)NC(=O)CSc1nnc(CNC(=O)OC(C)(C)C)n1C,14.8%
19,Cc1oc(-c2ccccc2)nc1C(=O)O,12.9%
20,CCOc1ccc(CCNC(=O)CCS(=O)(=O)c2ccc(Br)cc2)cc1OCC,11%
21,Cc1ccc(-c2nc(N)n(S(=O)(=O)c3ccc(C)cc3)n2)cc1,5.57%
22,Cc1cccc(S(=O)(=O)c2c(N)n(-c3ccccc3)c3nc4ccccc4nc23)c1,6.06%
